Counter-ions that a name gives are not always drawn.

For the experiment, the target named is α2δ subunit derived from porcine brain tissue (Sus scrofa, UniProt A0A287BIN3). Description: radioligand binding assay using [3H]gabapentin.

Compound `CC[C@@H](C)[C@H](CN)CC(=O)O` had an IC50 of 1800 nM.

As to `CC(C)[C@@H](C)C(CN)CC(=O)O` (some centres unmarked), the IC50 is 40 nM. `CCC(CC)C(CN)CC(=O)O` (centres unmarked) had an IC50 of 206 nM. The result for `CCC(C)CC(CN)CC(=O)O` (centres unmarked) reads 92 nM; that for `CCC(C)CC(CN)CC(=O)O` (racemic) [3-Aminomethyl-5-methylheptanoic acid], 92 nM; that for `CC(CC(CN)CC(=O)O)CC(C)(C)C` (centres unmarked) [3-Aminomethyl-5,7,7-trimethyl-octanoic acid], above 10000 nM. The compound `CC(C)CC(C)CC(CN)CC(=O)O` (centres unmarked) [3-Aminomethyl-5,7-dimethyl-octanoic acid] registered an IC50 of 359 nM. For `CC(CC(CN)CC(=O)O)C1CCCCC1` (centres unmarked) [3-Aminomethyl-5-cyclohexyl-hexanoic acid], the half-inhibitory concentration (IC50) came out at 7300 nM. `CC(CC(CN)CC(=O)O)C1CCCC1` (centres unmarked) [3-Aminomethyl-5-cyclopentyl-hexanoic acid] registered an IC50 above 10000 nM. As for `CC(Cc1ccccc1)CC(CN)CC(=O)O` (centres unmarked) [3-Aminomethyl-5-methyl-6-phenyl-hexanoic acid], the IC50 was 9080 nM. The compound `C=CCC(C)CC(CN)CC(=O)O` (centres unmarked) [3-Aminomethyl-5-methyl-oct-7-enoic acid] had an IC50 above 10000 nM. `CCCCCC(C)CC(CN)CC(=O)O` (centres unmarked) [3-Aminomethyl-5-methyldecanoic acid]: the IC50 is 150 nM. As to `CCCCC(C)CC(CN)CC(=O)O` (centres unmarked) [3-Aminomethyl-5-methylnonanoic acid], the IC50 is 178 nM.

In turn, `CCCC(C)CC(CN)CC(=O)O` (centres unmarked) [3-Aminomethyl-5-methyloctanoic acid, 3-Aminomethyl-5-methyl-octanoic acid] had an IC50 of 19 nM. The compound `CCCCCCC(C)CC(CN)CC(=O)O` (centres unmarked) [3-Aminomethyl-5-methylundecanoic acid] registered an IC50 of 163 nM. Then `CC(CC(CN)CC(=O)O)c1ccccc1` (centres unmarked) [3-Aminomethyl-5-phenyl-hexanoic acid], with 10100 nM; and `CC(CC(CN)CC(=O)O)C(F)(F)F` (centres unmarked) [3-Aminomethyl-6,6,6-trifluoro-5-methyl-hexanoic acid], with 4690 nM. For `CCCC(C(C)C)C(CN)CC(=O)O` (centres unmarked) [3-aminomethyl-4-isopropyl-heptanoic acid, 3-Aminomethyl-4-isopropyl-heptanoic acid], the IC50 stood at 671 nM. The compound `CCC(C(C)C)C(CN)CC(=O)O` (centres unmarked) [3-aminomethyl-4-isopropyl-hexanoic acid, 3-Aminomethyl-4-isopropyl-hexanoic acid] showed an IC50 of 490 nM. On to `CCCCC(C(C)C)C(CN)CC(=O)O` (centres unmarked) [3-aminomethyl-4-isopropyl-octanoic acid, 3-Aminomethyl-4-isopropyl-octanoic acid], for which the IC50 is 5400 nM.

Compound `CC(C)[C@@H](C)[C@H](CN)CC(=O)O` [(3R,4R)-3-Aminomethyl-4,5-dimethyl-hexanoic acid] yielded a half-maximal inhibitory concentration (IC50) of 22 nM. `CC(C)[C@H](C)[C@H](CN)CC(=O)O` [(3R,4S)-3-Aminomethyl-4,5-dimethyl-hexanoic acid] returned an IC50 of 1700 nM. In turn, `CC(C)[C@@H](C)[C@@H](CN)CC(=O)O` [(3S,4R)3-Aminomethyl 4,5-dimethyl-hexanoic acid] had an IC50 of 2200 nM. `CCCCC[C@@H](C)C[C@H](CN)CC(=O)O` [(3S,5R)-3-Aminomethyl-5-methyl-decanoic acid] yielded an IC50 of 29.7 nM. The result for `CCCC[C@@H](C)C[C@H](CN)CC(=O)O` [(3S,5R)-3-Aminomethyl-5-methyl-nonanoic acid hydrochloride] reads 26 nM; that for `CCC[C@@H](C)C[C@H](CN)CC(=O)O` [(3S,5R)-3-Aminomethyl-5-methyl-octanoic acid hydrochloride], 12 nM.

`CCC[C@H](C)C[C@H](CN)CC(=O)O` [(3S,5S)-3-Aminomethyl-5-methyl-octanoic acid] yielded an IC50 of 1200 nM. Regarding `CCCC(C)C[C@H](CN)CC(=O)O` (stereo partly drawn) [(S)-3-Aminomethyl-5-methyl-octanoic acid], the concentration for half-maximal inhibition (IC50) came out at 12.6 nM.

`CC(CF)C[C@H](CN)CC(=O)O` (stereo partly drawn) [(S)-3-Aminomethyl-6-fluoro-5-methyl-hexanoic acid]: the IC50 was 605 nM.

For orientation: IC50 means the concentration that inhibits the measured activity by half. Read a low IC50 as greater potency.
